In all, about 310,000 compounds went through this assay and about 14,000 (4.5%) showed an effect of 50% or more. Effects have a minus sign here. Some of the results follow.
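Also: peak tail current of the secondary pulse compared with the same well before compound.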

human ether-à-go-go-related gene (hERG) potassium channel, sequence (Q12809 whole entry, looked up): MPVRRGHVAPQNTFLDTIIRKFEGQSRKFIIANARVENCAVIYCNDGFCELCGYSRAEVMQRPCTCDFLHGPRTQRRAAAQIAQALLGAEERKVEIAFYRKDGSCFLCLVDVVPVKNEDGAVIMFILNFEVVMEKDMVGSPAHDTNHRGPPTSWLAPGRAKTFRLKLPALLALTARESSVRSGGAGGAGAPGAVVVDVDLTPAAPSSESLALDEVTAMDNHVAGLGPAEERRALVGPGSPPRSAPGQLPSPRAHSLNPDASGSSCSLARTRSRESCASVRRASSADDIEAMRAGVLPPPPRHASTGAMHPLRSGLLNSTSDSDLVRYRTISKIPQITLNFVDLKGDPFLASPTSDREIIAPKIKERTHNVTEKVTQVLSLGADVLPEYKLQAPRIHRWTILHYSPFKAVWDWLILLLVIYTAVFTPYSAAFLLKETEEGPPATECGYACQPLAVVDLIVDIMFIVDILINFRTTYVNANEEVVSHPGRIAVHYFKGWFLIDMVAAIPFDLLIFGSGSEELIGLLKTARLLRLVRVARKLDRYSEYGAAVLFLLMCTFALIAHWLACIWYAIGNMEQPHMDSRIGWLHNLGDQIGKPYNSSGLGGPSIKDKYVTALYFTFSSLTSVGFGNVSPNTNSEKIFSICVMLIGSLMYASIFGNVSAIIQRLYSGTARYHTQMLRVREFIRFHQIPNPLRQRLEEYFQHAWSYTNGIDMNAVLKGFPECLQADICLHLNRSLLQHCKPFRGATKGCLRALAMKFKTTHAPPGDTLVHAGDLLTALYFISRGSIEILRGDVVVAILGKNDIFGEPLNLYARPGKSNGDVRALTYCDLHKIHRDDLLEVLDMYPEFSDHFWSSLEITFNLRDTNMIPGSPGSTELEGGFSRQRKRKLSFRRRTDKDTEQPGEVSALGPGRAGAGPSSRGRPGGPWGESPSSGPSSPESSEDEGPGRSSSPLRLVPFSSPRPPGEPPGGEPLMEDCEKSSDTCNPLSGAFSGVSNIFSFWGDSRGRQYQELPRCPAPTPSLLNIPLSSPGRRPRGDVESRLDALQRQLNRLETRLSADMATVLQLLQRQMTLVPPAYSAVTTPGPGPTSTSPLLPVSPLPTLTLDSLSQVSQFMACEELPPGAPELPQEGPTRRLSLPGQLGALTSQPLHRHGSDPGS

This assay has as its target human ether-à-go-go-related gene (hERG) potassium channel (human, UniProt Q12809). In words: primary screen, population patch clamp on CHO cells stably expressing hERG.
`Cc1ccnc(SCC(=O)N2CCN(c3ccccc3)CC2)n1`: the “hERG current change (%, negative = inhibition) at 10uM” value is -2.6%.
The value for `O=C(Nc1ccon1)c1cnc2sccn2c1=O` was 6.34%; that for `CC(C)CN1CCC(=O)N(CCO)CC1` was 1.33%.
In the case of `CCS(=O)(=O)c1ccc2oc(Nc3ccccc3C)nc2c1` it was -0.135%; in that of `CCOC(=O)C1=C(C)N(CCCC(=O)O)C(=O)NC1c1ccc(OC)cc1` (centres unmarked), -0.38%; in that of `CCOC(=O)C1=C(c2ccccc2)Nc2ncnn2C1c1ccc(C(=O)O)cc1` (centres unmarked), -21.2%.
In the case of `CC(C)(C)C(=O)NC(=S)Nc1cccc(C(=O)O)c1` it was -1.75%.
As for `COc1cccc(N2CC(C(=O)Nc3nnc(SCCC4OCCO4)s3)CC2=O)c1` (centres unmarked), the “hERG current change (%, negative = inhibition) at 10uM” value amounted to 5.65%.
The value for `CC(C)C(c1nnnn1Cc1ccco1)N1CCN(C2CCCC2)CC1.Cl` (centres unmarked) was -3.68%.
The value for `NNC(=O)CS(=O)(=O)c1ccc(Cl)cc1` was 11%; that for `CCCCN(Cc1nc2ccccc2c(=O)[nH]1)C(=O)COc1ccc(F)cc1Cl` was 2.89%; that for `O=C(N=C1c2ccccc2CN1c1ccc(F)c(Cl)c1)c1cccnc1Cl` was -3.77%.
In the case of `O=S(=O)(Nc1ccccc1N1CCOCC1)c1ccc(F)c(Cl)c1` it was -18.6%; in that of `Cc1ccc2nc(SCC(=O)Nc3ccc(F)cc3)nc(=O)n2c1`, -43%; in that of `Cc1cccc(NC(=O)CNC(=O)c2ccccc2Cl)n1`, 3.81%.
Consider `CC[C@H]1OC(=O)[C@H](C)[C@@H](O[C@H]2C[C@@](C)(OC)[C@@H](O)[C@H](C)O2)[C@H](C)[C@@H](O[C@@H]2O[C@H](C)C[C@H](N(C)C)[C@H]2O)[C@](C)(OC)C[C@@H](C)C(=O)[C@H](C)[C@@H](O)[C@]1(C)O`, for which the “hERG current change (%, negative = inhibition) at 10uM” value was 18.1%.
On to `CCOc1ccccc1N(CC(=O)Nc1ccc(OC)cc1OC)S(=O)(=O)c1ccccc1`, for which the “hERG current change (%, negative = inhibition) at 10uM” value is listed as 14.6%.
Take `O=C(O)/C=C\C(=O)O`: the “hERG current change (%, negative = inhibition) at 10uM” value was 8.4%.
The value for `COc1ccc(NC(=S)N2CCc3cc(OC)c(OC)cc3C2)cc1` was 11.8%; that for `Cc1ccc(NC(=O)CSCc2nc3c(nnn3Cc3ccc(F)cc3)c(=O)[nH]2)c(C)c1` was 8.78%.
In the case of `CN(Cc1cccnc1)C(=O)c1cc(COc2ccc3c(c2)CCCC3)on1` it was -40.2%.
In the case of `C=CC[C@]12CCc3ccccc3C1N(c1ccc(C(=O)OCC)cc1)C2=O` (some centres unmarked) it was 0.16%; in that of `CC(CNC(=O)c1cccs1)c1ccc([N+](=O)[O-])cc1` (centres unmarked), 4.3%; in that of `CC(C(=O)N1CCCC1)N1CCN(S(=O)(=O)c2ccc(C(C)(C)C)cc2)CC1` (centres unmarked), -30.9%.
For the compound `CC(=O)Nc1ccc(NC(=O)CSc2nncn2C)cc1`, the “hERG current change (%, negative = inhibition) at 10uM” value worked out at 8.46%.
The value for `Cc1nnc(C)c2c(C)n(Cc3ccc4c(c3)OCO4)c(C)c12` was -71.4%; that for `O=C(CN1CCN(Cc2ccccc2)CC1)NCc1ccccc1Cl` was -30.5%; that for `Nc1cc(-c2ccc(Br)cc2)nn1S(=O)(=O)c1ccccc1` was 14.5%.
The value for `CC/C(=N\NC(=O)c1ccc2c(c1)OCO2)C12CC3CC(CC(C3)C1)C2` was 14.6%; that for `COc1ccc(OCC(O)CNS(=O)(=O)c2cccc(Cl)c2)cc1` (centres unmarked) was -4.79%; that for `COc1ccccc1C(C)NC(=O)Cc1ccsc1` (centres unmarked) was 15.1%.
In the case of `CCc1ccc(S(=O)(=O)/N=C2\C=C(Nc3ccc(O)cc3)C(=O)c3ccccc32)cc1` it was 13.8%; in that of `COc1ccc(OC)c(S(=O)(=O)N2CCCC2C(=O)NC(C)c2ccccc2)c1` (centres unmarked), 1.83%.
For `O=C(Nc1ccccc1Cc1ccccc1)c1ccncc1`, the “hERG current change (%, negative = inhibition) at 10uM” value came out at 7.4%.
Consider `COc1ccc(C2/C(=C(/O)c3ccc(C)cc3)C(=O)C(=O)N2CC2CCCO2)cc1OC` (centres unmarked), for which the “hERG current change (%, negative = inhibition) at 10uM” value turned out to be 20.8%.
In the case of `Clc1ccc(C[n+]2cc(-c3ccccc3)n3c2CCCCC3)c(Cl)c1.[Br-]`, the “hERG current change (%, negative = inhibition) at 10uM” value was -74.4%.
In the case of `OCC1(CCc2ccccc2)CCN(Cc2c(F)ccc(F)c2F)CC1` it was -36.9%; in that of `Cc1ccccc1NS(=O)(=O)c1ccc(F)cc1`, -2.75%.
The value for `Cc1cc(C)n(C(=O)C2CCCN2S(=O)(=O)c2ccc(Cl)cc2)n1` (centres unmarked) was -7.48%; that for `COc1ccc(CCNC(=O)C(=O)N/N=C/c2cccs2)cc1OC` was 17.2%; that for `O=C1NC(=O)N(c2ccccc2)C(=O)/C1=C/C=C/c1ccco1` was 3.08%.
The value for `CCCC(=O)Nc1ccc(-c2nc3cc(C)c(C)cc3o2)c(O)c1` was 5.12%.
As for `CC(C)(C)OC(=O)NCCNC(=O)c1cccs1`, the “hERG current change (%, negative = inhibition) at 10uM” value came to 23.9%.
The value for `O=C(Nc1ccncc1)C1CCN(S(=O)(=O)c2ccc(Cl)cc2)CC1` was -49.1%; that for `O=C(O)C1C2CCC(O2)C1C(=O)Nc1cnn(Cc2ccccc2)c1` (centres unmarked) was -20.5%; that for `COc1ccc(OCC(=O)Nc2ccc(S(=O)(=O)N3CCCCCC3)cc2)cc1` was -2.71%.
The value for `O=[N+]([O-])c1cc(C(F)(F)F)ccc1NCCc1c[nH]c2ccc(O)cc12` was 7.08%; that for `COc1ccccc1Oc1cc(F)nc(N)n1` was 5.82%; that for `O=C(O)CN1C(=O)SC(Nc2ccc(Cl)cc2)C1=O` (centres unmarked) was 14.1%.
On to `COc1ccc(-c2cn3c4c(sc3n2)CCCC4)cc1`, for which the “hERG current change (%, negative = inhibition) at 10uM” value is given as -28.3%.
Take `CC1=C(C(=O)NCc2ccccc2)C(c2cc(Br)cc(Br)c2OC(C)C)NC(=O)N1` (centres unmarked): the “hERG current change (%, negative = inhibition) at 10uM” value is -8.97%.
On to `COc1ccccc1C(=O)C1CCCN(C(=O)CN2CCCCC2=O)C1` (centres unmarked), for which the “hERG current change (%, negative = inhibition) at 10uM” value is listed as 9.61%.
The value for `CC(=O)Nc1ccc(S(=O)(=O)NCCS(=O)(=O)N2CCN(c3ccccc3)CC2)cc1` was 4.6%.
In the case of `CCN(CC)C(=O)Cc1c(O)c2ccccc2[nH]c1=O` it was 5.12%; in that of `Cc1cc(N2CCOCC2)nc2ccc(NC(=O)CCC(=O)N3CCCCC3)cc12`, -26.3%.
With `O=C(NC(NCc1cccnc1)C(Cl)(Cl)Cl)c1cccc2ccccc12` (centres unmarked), the “hERG current change (%, negative = inhibition) at 10uM” value is -20.8%.
